Laboratory results from patent publication EP4663658A1 (Carbiogene Therapeutics Co., Ltd., dated 2025).

Target: T1, CLL1 protein (C-type lectin-like molecule 1) expressed on cells (UniProt Q5QGZ9 1-265, limits assumed)
T1 construct: whole, on cells; also called CLEC12A; C-type lectin domain family 12 member A
T1 sequence (looked up): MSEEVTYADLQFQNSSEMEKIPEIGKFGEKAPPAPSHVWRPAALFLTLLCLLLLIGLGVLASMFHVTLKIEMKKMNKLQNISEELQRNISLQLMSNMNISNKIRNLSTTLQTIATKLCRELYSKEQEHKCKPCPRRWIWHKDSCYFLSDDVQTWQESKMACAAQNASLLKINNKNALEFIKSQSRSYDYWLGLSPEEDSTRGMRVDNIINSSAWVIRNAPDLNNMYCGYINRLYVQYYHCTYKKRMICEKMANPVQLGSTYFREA
Assay: flow cytometry, FITC-labelled CLL1-VHH-1-hFc titrated on K562-CLL1 cells; KD from a double-reciprocal plot of MFI

B1: anti-CLL1 single-domain antibody fused with hFc (CLL1-VHH-1-hFc) (Fc fusion)
chain: DVQLQESGGGLVQPGGSLRLSCAASGFTFGDYDMTWVRQAPGKGPEWVSAINSGGGSTYYADSVKGRFTISRDNAKNTLYLQMNSLKPEDTAVYYCATIDRLSTVVAGTYQPSDEYDYWGQGTQVTVSS[no letters for human IgG1 Fc with changes]
notes: Expressed in HEK293 cells and purified on Protein A. No linker between VHH and hFc is described, and no signal peptide is described; For flow cytometry (KD, specificity) the protein was labelled with the Pierce NHS-Fluorescein Antibody Labeling Kit (FITC-CLL1-VHH-1-hFc); The NK cell assays used the unlabelled protein; also called FITC-CLL1-VHH-1-hFc; VHH-hFc
Kd: 48.3 nM
